Values marked as one replicate rest on one cluster of the flow cell; about a third of the high ones do not repeat.
Tested on: ATP
Assay: switch fluorescence ratio, 500 uM ATP over buffer (Cy3 cluster intensity, sum of 5 cycles each) (fold (ratio)); higher = stronger signal-on switching upon ATP binding; sequences stand for … in TCGTCGGCAGCGTCAGATGTGTATAAGAGACAGTTTTTTTTTTTTTTTTTTTTTTTTT…TC
Conditions: aptamer strand: ATP DNA aptamer (quencher-CACCTGGGGGAGTATTGCGGAGGAAGG + anchor), 100 nM annealed; ATP concentration: 500 uM; one replicate
How it was run: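 Imaging in selection buffer was followed by imaging after 15 min with 500 uM ATP at 22 °C, for Cy3-labelled switching-strand clusters annealed to 100 nM quencher-labelled ATP aptamer on a modified Illumina MiSeq flow-cell. Five of these buffer/ATP cycles ran, separated by NaOH stripping and re-annealing. The fluorescence ratio per cluster is summed target-cycle over summed buffer-cycle Cy3 intensity, averaged per switch-domain sequence; clusters outside 100-1000 RFU were removed.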
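Also: ATP exposure 15 min at 22 °C before imaging.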

| Sequence | switch fluorescence ratio |
| --- | --- |
| TCAATTCGGG | 1.01 |
| TCAATGAGGT | 0.996 |
| ATGGGGAACG | 1.04 |
| GAGCCTAAGC | 1.06 |
| TTGGATAATA | 0.992 |
| GTGCCTGATC | 1.16 |
| ATGTAAGGAA | 1.03 |
| TGACGAGATA | 1.06 |
| ATCCAGACG | 0.972 |
| TCTTTGCCTA | 0.998 |
| CATCAATTCA | 1.04 |
| GACGACAACA | 1.5 |
| GTGTACTTAT | 1.05 |
| ATGTCGCGGT | 1.01 |
| TCGTGATGAG | 0.999 |
| ACGGCTGTGA | 0.991 |
| TCATGTTGGT | 1.04 |
| ATAACTCTTC | 1.03 |
| CGAGAATGGG | 0.984 |
| TTGTGGACC | 0.957 |
| AATAACGGTA | 1.03 |
| CGGATTCCGT | 0.982 |
| CTGTAGGGTG | 0.976 |
| CAGCTCCTTT | 0.989 |
| CGCACTTTGA | 1.08 |
| ATACCCGCAA | 4.79 |

| Sequence | switch fluorescence ratio |
| --- | --- |
| CAGGGTCGTA | 0.971 |
| TAACAATGAT | 0.976 |
| TTTGCTAGG | 1.04 |
| GACACGGAGT | 1.02 |
| CATTTAGGTG | 1.14 |
| CCGAGTTACT | 2.58 |
| CCGGAATATG | 2.61 |
| CACGATAGAA | 1.09 |
| ATTCCGTATG | 1.06 |
| CCTCACGGGT | 1.27 |
| TAGTGCAGCC | 1.08 |
| GATAACCCTT | 0.989 |
| AGGCCAAAGG | 0.92 |
| CGTCAATTTG | 1.03 |
| ACTCGTAACC | 1.09 |
| CTGAAGGGTG | 0.987 |
| GGGTGAATAT | 1.3 |
| GGTCTTAATT | 1 |
| CAAACTCAGG | 1.11 |
| TTTTGCCACT | 1.01 |
| AGAACCTAGC | 1.18 |
| TTCAGACGGC | 1 |
| GTCATAGTCT | 1.06 |
| ATCATGTAGG | 1.04 |
| ATTTATTCCA | 0.999 |
| TATAAAATTA | 0.978 |

| Sequence | switch fluorescence ratio |
| --- | --- |
| GTCATAGGAA | 0.999 |
| ACGAGTTGCA | 0.996 |
| TACCCAAATA | 1.05 |
| TAAGGTCTAC | 0.995 |
| GATCACCCGA | 1.03 |
| ACCTCAACCC | 1.18 |
| GCGCGGATGG | 1.01 |
| TTTAGCGATA | 1.21 |
| AAGCAGTATT | 0.99 |
| ATCAGACGAC | 1.08 |
| TCAGGTGCTG | 1.09 |
| CGCTTGTAAA | 1.05 |
| CCGTTCCTAG | 1.09 |
| GAGAGGCGAG | 1.02 |
| ACAGTCGTAT | 1 |
| CTTGGCTGGC | 0.925 |
| ATCTCAGACG | 1.08 |
| TTCATCTATG | 0.987 |
| GATCACATTG | 1.03 |
| ACGCAACAGG | 1.55 |
| AGTTATTGG | 1.04 |
| TCTGAGCCGT | 1.01 |
| GTAGCATAAA | 1.34 |
| GGGCGTTATC | 1.01 |
| GCCTGCGTAT | 1.08 |
| ACGATCCAGG | 5.36 |

| Sequence | switch fluorescence ratio |
| --- | --- |
| AAAAAGTTCG | 1.09 |
| CGGAAGACTT | 1.07 |
| TAGAATCA | 0.947 |
| TCGCGCTGTT | 1.03 |
| ATTTAGAGAC | 1.01 |
| CGGTTTTTCG | 0.992 |
| GCTCTGTAG | 1.05 |
| ACAGTTGAAT | 1.01 |
| CAGCTAGGTC | 1.01 |
| CTCCACGTAT | 1.12 |
| AGTTCGGGAT | 0.976 |
| CGTATGGG | 1.03 |
| ATCCACGCAC | 1.99 |
| CAGCAGTTGG | 0.999 |
| TCACAGAGCG | 0.996 |
| AGAAGCTGCG | 1.01 |
| GCAGCACAGA | 1.08 |
| GGCATCGGAT | 0.982 |
| TTACGGGGA | 1.02 |
| TAAGACGTTG | 1.01 |
| CATGACAGC | 1.01 |
| GCATACTTGG | 1.02 |
| TCAGTTGGTA | 0.97 |
| CAACTGCCTC | 1.08 |
| TCGGGGTCGC | 0.938 |
| GTAGTCGTAA | 1.01 |

| Sequence | switch fluorescence ratio |
| --- | --- |
| CCGCCGTTT | 1.49 |
| TACAAGGGGG | 1.04 |
| CGGGGAAAA | 0.998 |
| TGTTGACCCC | 1.08 |
| ACTCTTCAAA | 1.03 |
| AAAGACAGCT | 1 |
| AGCTGGGCCC | 1.02 |
| TGCAACATTT | 1.01 |
| AGCTGGGGAG | 1 |
| TAGGAAGGTC | 1.03 |
| GCCGAGAAAG | 0.994 |
| AGAGACGGGA | 1.1 |
| GCAGTAACTC | 1.84 |
| TTGAAGACTT | 1.02 |
| GCACGGAGGA | 1.11 |
| TTGAGCAGAT | 1.1 |
| ACATTCAGTC | 0.996 |
| CGGTAGCCCA | 0.975 |
| CGAAAAACTC | 1.72 |
| CCCCGACCCG | 1.09 |
| GTTAAACTGC | 0.912 |
| GGTCTTCTTG | 0.955 |
| CATTGGTGAC | 1.02 |
| GTCCGGGGTA | 1.11 |
| ATAAACCGTT | 1.05 |
| GCTCATATGT | 0.986 |

| Sequence | switch fluorescence ratio |
| --- | --- |
| AGTGTAACGT | 1.03 |
| GGGTAAACAG | 1.01 |
| ATCGAATGTG | 1.01 |
| CCACAGTCCC | 1.11 |
| TCCAAGCGAT | 1.26 |
| AGTACCGTGC | 1.05 |
| ACAGGTCAT | 0.997 |
| TAGATCTTCG | 1.05 |
| GGCTCATGGG | 1.04 |
| GTTGAACAGA | 0.979 |
| AGGACTGAGT | 0.999 |
| AAACGTCGC | 0.987 |
| GAACACGCTG | 1.04 |
| GCAGCAGCGT | 1.04 |
| CAGTCTCTTT | 1.04 |
| TTCCCTTAAG | 1.01 |
| CTAAATACGT | 1.07 |
| GGGGGTGCAC | 0.932 |
| CCAGTCCGCC | 1.98 |
| ACGGAGACAG | 1.16 |
| GACGTTTAGC | 1.01 |
| TACGCTTGTG | 0.995 |
| TCCCTCCCTA | 1.8 |

— the supplement of paper PMC10126150
